Laboratory results taken from article PMC9911596 (Nature Communications, 2023).
Residue numbers refer to the chain shown, from its start. These are yes or no findings as the source states them, for the method shown. Some entries that bind do so weakly or less than the wild type.

By UniProt entry, the sequences of proteins in these tests, tags left out. Residues count along the entry.
UniProt P47075, residues 2-721: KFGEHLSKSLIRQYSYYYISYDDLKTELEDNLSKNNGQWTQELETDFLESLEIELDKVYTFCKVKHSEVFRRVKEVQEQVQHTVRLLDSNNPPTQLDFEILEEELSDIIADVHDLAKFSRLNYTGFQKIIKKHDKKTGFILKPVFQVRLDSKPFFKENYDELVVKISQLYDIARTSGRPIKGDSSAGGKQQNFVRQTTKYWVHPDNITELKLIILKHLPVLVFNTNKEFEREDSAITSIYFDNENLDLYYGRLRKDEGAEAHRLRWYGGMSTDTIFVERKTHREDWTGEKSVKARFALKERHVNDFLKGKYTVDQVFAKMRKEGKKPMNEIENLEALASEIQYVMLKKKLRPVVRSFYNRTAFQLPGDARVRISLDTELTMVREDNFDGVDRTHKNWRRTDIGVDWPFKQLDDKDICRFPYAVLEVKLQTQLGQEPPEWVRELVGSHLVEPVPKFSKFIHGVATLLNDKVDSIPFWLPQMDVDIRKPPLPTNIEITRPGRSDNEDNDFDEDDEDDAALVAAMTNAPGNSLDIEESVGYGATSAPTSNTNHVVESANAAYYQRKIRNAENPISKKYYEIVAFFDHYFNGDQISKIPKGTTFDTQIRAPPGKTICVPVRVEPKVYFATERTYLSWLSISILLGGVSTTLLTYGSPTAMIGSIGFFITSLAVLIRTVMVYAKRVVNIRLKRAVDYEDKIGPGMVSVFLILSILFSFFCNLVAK

Legend:
Assay in all cases: tandem affinity co-purification (anti-Flag resin, then Strep-Tactin resin) with SDS-PAGE; three subunits co-expressed in Expi293F; complex purified by 3×Flag on Vtc3 and 2×Strep on Vtc4; no InsP6 added, 0.02% DDM
[1] = molecular target: T1, Vtc3_(K333A/K362A/K364A/Y380F) (Baker's yeast) (UniProt Q02725)
T1 sequence: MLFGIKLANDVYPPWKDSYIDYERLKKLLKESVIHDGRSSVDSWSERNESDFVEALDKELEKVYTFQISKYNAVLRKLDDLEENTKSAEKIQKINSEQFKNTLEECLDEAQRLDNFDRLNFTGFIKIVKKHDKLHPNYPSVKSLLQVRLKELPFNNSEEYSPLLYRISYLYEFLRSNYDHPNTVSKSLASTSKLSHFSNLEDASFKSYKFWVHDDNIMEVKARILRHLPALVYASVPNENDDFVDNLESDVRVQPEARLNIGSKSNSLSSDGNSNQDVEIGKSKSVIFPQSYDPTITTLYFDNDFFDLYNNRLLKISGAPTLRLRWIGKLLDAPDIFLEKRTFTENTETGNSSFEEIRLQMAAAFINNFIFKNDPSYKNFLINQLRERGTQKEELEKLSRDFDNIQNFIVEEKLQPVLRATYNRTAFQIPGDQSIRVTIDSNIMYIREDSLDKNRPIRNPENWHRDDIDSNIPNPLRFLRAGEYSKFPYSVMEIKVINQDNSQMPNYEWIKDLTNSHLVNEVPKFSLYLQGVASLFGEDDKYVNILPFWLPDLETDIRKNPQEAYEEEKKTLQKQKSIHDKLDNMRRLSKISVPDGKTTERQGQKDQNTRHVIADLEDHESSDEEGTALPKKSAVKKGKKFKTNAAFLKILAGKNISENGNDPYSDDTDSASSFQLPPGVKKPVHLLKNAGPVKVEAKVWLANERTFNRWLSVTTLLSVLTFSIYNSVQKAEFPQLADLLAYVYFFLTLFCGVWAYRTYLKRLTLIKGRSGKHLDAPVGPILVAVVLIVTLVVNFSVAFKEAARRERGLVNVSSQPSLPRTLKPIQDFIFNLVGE

[2] = molecular target: T2, Vtc3_(Y22F/K26A/K130A) (Baker's yeast) (UniProt Q02725)
T2 sequence: T1 sequence with Y22F, K26A, K130A, A333K, A362K, A364K, F380Y

[3] = molecular target: T3, Vtc3_(K126A/K129A/K133A) (Baker's yeast) (UniProt Q02725)
T3 sequence: T1 sequence with K126A, K129A, K133A, A333K, A362K, A364K, F380Y

Measured: binding

Vtc4 (from UniProt P47075 2-721)
binds: all assays above

B1: Vtc1 (natural protein, Baker's yeast)
chain: SSAPLLQRTPGKKIALPTRVEPKVFFANERTFLSWLNFTVMLGGLGVGLLNFGDKIGRVSAGLFTFVAMGTMIYALVTYHWRAAAIRRRGSGPYDDRLGPTLLCFFLLVAVIINFILRLKYNDANTKL
notes: Vtc1, yeast, UniProt P40046; codon-optimized DNA in the pMlink vector; Three copies of Vtc1 stand in the Vtc1/Vtc3/Vtc4 complex (3:1:1); also called Vtc1A; Vtc1B; source: Expi293F cells, transiently cotransfected with the Vtc3 and Vtc4 plasmids; purified as part of the VTC complex (anti-Flag resin, Strep-Tactin resin; SEC for the cryo-EM sample)
binds: all assays above
